# Measured values published in ChEMBL document CHEMBL4888484, “Replenishing the malaria drug discovery pipeline: Screening and hit evaluation of the MMV Hit Generation Library 1 (HGL1) against asexual blood stage Plasmodium falciparum ,using a nano luciferase reporter read-out” (2022).
# About 540 (0.36%) of roughly 150,000 compounds showed an effect of 50% or more. The list shows a part of the results.
# System: Plasmodium falciparum
# Assay: Primary screen in NF54 nanoGlo assay, in single point, at 2uM, 72h; a lower Z score goes with more inhibition
# Format: functional, Erythrocyte
# Settings: timepoint 72 hour
Structure (SMILES),% Inhibition [%],Z score
CN1CC2(C[C@H]1c1noc(-c3ccccn3)n1)CN(C(=O)CCC1CCCC1)C2,-15,1.7
O=S1(=O)CCN(c2ccccc2-c2nc(-c3cccnn3)no2)CC1,-15,2.56
CC1CCCC(NC(=O)C(C)N2CCCC(Cn3cncn3)C2)C1C (centres undefined),1,-0.12
CN(Cc1nccn1Cc1ccccc1)C(=O)CCC(=O)Nc1nncs1,-8,1.29
COCCCN(Cc1ccnc(C(C)C)n1)C1CCN(C)CC1,-8,1.01
CCn1nc(C)c(C(=O)N2C[C@H]3CC[C@@H](C2)N(CC2CC2)C3)c1C,0,0.03
CO[C@H]1CN(c2ncnc3ccccc23)C[C@@H]1O,-4,0.68
COCCC[C@H]1CCCCN1C(=O)c1ccc(OC)c(N2CCOCC2)c1,-8,0.99
CC(C)(C)c1cc(=O)n(Cc2cccc(C(=O)Nc3ccccc3)c2)cn1,3,-0.32
CCN(CC)CC(=O)Nc1nc(C)ns1,-10,1.27
Cc1nn(CC(F)F)cc1C(=O)N(C)[C@H]1CCN(C)C1=O,-4,0.53
Cn1cc(CN[C@H]2[C@H](O)[C@H](O)C[C@@H]2c2ccc(C(F)(F)F)cc2)cn1,-12,1.49
C[C@@]1(CO)CN(Cc2ccccc2)C[C@@H]2CN(C(=O)C3CCCCC3)CCN21,-16,2.43
O=C(NCc1nccnc1-c1ccco1)c1ccco1,-2,0.42
O=C(Nc1ccc2ccccc2c1)N(Cc1ccccc1)c1ccccc1,3,-0.6
CN1c2ccccc2N(C2CCN(C(=O)c3cccc(-n4cnnn4)c3)CC2)S1(=O)=O,-5,0.55
CC1CCCCC1NC(=O)c1cc2sccc2n1Cc1ccc(F)cc1 (centres undefined),-3,0.59
O=S(=O)(Cc1noc(C2CC2)n1)NCCOC1CCCCCC1,-6,1.05
CCCNC(=O)c1cc(C)c(CC)s1,-16,1.51
O=C(C1CCOCC1)N1CCC[C@H](CCc2ccccc2)C1,1,-0.09
CCOC(=O)c1cc(C2CC2)nc2c1c(=O)n(CC(=O)N1CCCC[C@@H]1C)c(=O)n2C,-10,1.45

Structure (SMILES),% Inhibition [%],Z score
CN(CC(=O)Nc1ccc(-n2cnnn2)cc1)c1nc2c(Cl)cccc2s1,-11,2.16
COC(=O)N(C)CCCC(=O)Nc1ccccc1-c1ncco1,-3,0.42
CCCS(=O)(=O)N1C[C@H](C(=O)NCCc2ccncc2)C2(CCOCC2)C1,-3,0.57
Cc1ccc(C(=O)N2CCC(n3cc(N(C)C)cn3)CC2)c(Cl)c1,-4,0.48
COc1cccc(Cn2cccc(NC(=O)[C@@]3(C)CC3(F)F)c2=O)n1,0,-0.09
COc1ccc(Nc2nc(C)c(NC(=O)c3ccccc3)c(Nc3ccc(OC)cc3)n2)cc1,-12,2.3
CN(CC1(CO)CCCC1)C(=O)c1ccc(CCC(C)(C)O)cc1,-15,2.19
CCn1ccc([C@H](C)NC(=O)c2cc(-c3ccc(OC)cc3)nc3c2c(C)nn3C)n1,38,-1.08
C[C@H](O)CN1CC2(CCC1=O)CCN(C(=O)c1ccc(CO)o1)CC2,2,-0.39
CC(C)c1nsc(CN2CCN(C(=O)CO)CC2)n1,-2,0.34
Cc1ccc(CN2C(=O)N[C@]3(CCCN(C(=O)c4cc5ccccc5[nH]4)C3)C2=O)cc1,4,-0.54
O=C(CCC(F)(F)F)NCc1cncn1C1CC1,-12,1.3
CCNC(=O)Nc1ccc2c(c1)CN(S(=O)(=O)c1ccc3c(c1)CCC3)CCO2,4,-0.8
CCNS(=O)(=O)c1ccc2c(c1)N(CC(C)(C)CCC#N)CC2,-44,5.2
CC(=O)N1CCN(c2nc3c(s2)C[C@@H](C(=O)NCc2ccc(C)cc2)CC3)CC1,34,-3.86
COc1cc2c(cc1OC)[C@@]1(Nc3c-2c(-c2ccccc2)nn3-c2ccccc2)C(=O)Nc2ccccc21,8,-0.96
Cc1csc2c(N[C@H]3CCCN(CCO)C3=O)ncnc12,-18,1.87
Cc1cc(C(=O)O)nc(NCC2(N(C)C)CCCCC2)n1,-1,0.13
COc1ccc([C@@]2(CC(=O)N3CCN(Cc4nccn4C)CC3)CC(=O)N(C3CCCC3)C2=O)cc1,13,-1.81
COc1ccc(C)cc1-n1cc(C(=O)N(C)c2cccc(C)n2)ccc1=O,0,-0.04
Cn1cccc1C(=O)N[C@@H]1CN(c2ncccn2)C[C@H]1CO,-11,2.05

Structure (SMILES),% Inhibition [%],Z score
Cc1cc(NC(=O)Cn2c(=O)n(CC3CCC(C(=O)NCCc4ccccc4)CC3)c(=O)c3ccccc32)n[nH]1 (centres undefined),-12,1.88
C[C@@H](C1CC1)n1cc(NC(=O)Nc2scnc2C2CC2)cn1,3,-0.45
CCOC(=O)CCC(=O)N1CCN(c2nc(Cc3ccc(C)cc3)nc3c2c(C)nn3-c2ccccc2)CC1,-12,1.15
c1ccc(-c2nc(-c3cnccn3)no2)c(COC2CCOCC2)c1,-20,1.81
COc1cc(C(=O)N2CCCc3ccnc(N(C)C)c32)ncn1,-13,2.02
Cc1cc(C(=O)N2CCn3c(nn(CC(C)C)c3=O)[C@H]2c2ccccc2)c(C)o1,4,-0.61
c1cc(C2CCCC2)nc(NCc2noc(C3CCCC3)n2)n1,-7,1.21
Cc1ccc(C(=O)Nc2cc(C(=O)NC3CCCCC3)ccc2Cl)cc1C,-25,2.95
Cc1csc([C@@H]2CCCN2C(=O)Nc2ccn(C)c(=O)c2)n1,-12,1.38
C[C@H]1Cc2cc(S(=O)(=O)N(C3CC3)C3COC3)ccc2O1,-14,2.2
CCCc1ccc(-c2nc3c(cnn3CC)[nH]2)o1,-9,1.57
CCN1C(=O)C2(CCN(S(=O)(=O)c3ccc(C)c(F)c3)CC2)c2ccccc21,-8,1.28
CCCc1cc(C(=O)N2CCN(CC=C(C)C)[C@@H]3CS(=O)(=O)C[C@@H]32)[nH]n1,-2,0.24
Nc1ccc(CNC2CCCCC2N2CCOCC2)cn1 (centres undefined),-4,0.48
CCN(CC)S(=O)(=O)c1ccc2c(c1)cc(C(=O)N1CCCC1)n2C,-13,1.87
Brc1ccccc1C1(CNCc2ncc[nH]2)CC1,-13,1.96
CCc1n[nH]c(NS(=O)(=O)c2cccnc2C(F)(F)F)n1,-13,1.23
CCNC(=O)c1ccc(NC(=O)N2CCC3CCC(C2)N3C)cc1 (centres undefined),-3,0.53
CS(=O)(=O)N1CCC[C@H]1C(=O)NCCc1nc2ccccc2o1,-5,1.04
CC(C)[C@H]1CN(Cc2ccc3cccc(Cl)c3n2)C[C@@H]1N(C)C,-1,0.21
CC(C)n1nccc1NC(=O)CCOc1ccccc1,-4,0.55

Structure (SMILES),% Inhibition [%],Z score
CC[C@H](Oc1ccccc1C)c1nnc(C2(c3ccccc3)CCC2)o1,-10,1.18
Cc1cccc(CN2C[C@@H](c3noc(-c4ccccn4)n3)CC2=O)c1,33,-4.27
CCC(CC)N(CC)C(=O)c1ccc(C(=O)O)cc1F,-12,1.91
Cc1nnsc1C(=O)Nc1nc(-c2ccsc2)ns1,5,-0.64
CCOC(=O)c1sc(=S)n(CC)c1NC(=O)c1ccccc1Cl,12,-1.48
CC(C)NC(=O)[C@@H]1C[C@@H](NCc2cccc3ccccc23)CN1C(C)C,-10,1.26
COc1cccc2c1OCc1cn(nn1)[C@H]1CN(C(=O)c3cn(C)c4ccccc34)C[C@H]1CC(=O)NCCN(C)C2=O,-18,2.24
Oc1cc(C(F)(F)F)nc(CNc2ccc(Cl)c(Cl)c2)n1,6,-1.09
CN(C)C(=O)NCCNS(=O)(=O)C[C@H]1CC2(CCC2)CO1,2,-0.45
Nc1c(C(=O)NCCc2ccccc2)sc(=S)n1C1CC1,4,-0.46
O=C(c1ccc(S(=O)(=O)N2CCOCC2)cc1)N1CCC[C@H]1c1cccs1,-6,0.59
Cn1cccc1C(=O)OCC(C)(C)C1OCC(C)(C)CO1,-4,0.41
COc1cccc2nc(NC(=O)NCC[C@H]3CC(=O)N(C)C3)sc12,-6,0.94
O=S(=O)(C1CC1)N1CCCC[C@H](c2ccc(F)cc2)C1,-11,1.66
CCOC(=O)c1[nH]c(C2CCN(CC(=O)OC)CC2)nc1C,-2,0.22
Cc1ncc(C(=O)NC2CN(Cc3ccccc3)CCC2CO)s1 (centres undefined),-4,0.7
Cc1nccn1CCCCNS(=O)(=O)c1cc(Cl)cnc1N,1,-0.11
CC1(C)C2CN(C(=O)Nc3cccc(OCCn4cccn4)c3)CC21 (centres undefined),2,-0.34
CC(NCc1nc2ccc(Br)cc2o1)C1CCOC1 (centres undefined),0,-0.04
